According to the supplement of paper PMC12582362:
Counter-ions that a name gives are not always drawn. Among all 1,500 compounds or so, about 30 (2%) showed activity.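 Rule for the calls: active = robust z-score below -2; a few such results were not called.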 The list shows a part of the results.

tested on: optoTopBP1 Flp-In 293 T-REx (HEK293) cells; assay: light-induced TopBP1 condensate (nuclear foci) count, plate-normalised robust z-score vs non-control wells; higher = more TopBP1 condensates (negative = condensation inhibitor), active = hit call of the paper; conditions: 10 µM; incubation time 2 h

Row | Compound | light-induced TopBP1 condensate (z-score)
1 | CC(=O)Oc1c(C)cccc1C(=O)O [Cresopirine] | inactive: -0.352
2 | N=c1ccn2c(n1)O[C@H]1[C@H](O)[C@@H](CO)O[C@H]12 [Ancitabine hydrochloride] | active: -2.02
3 | C[C@]12C=CC(=O)C=C1CC[C@@H]1[C@@H]2[C@@H](O)C[C@@]2(C)[C@H]1CC[C@]2(O)C(=O)CO [Prednisolone] | inactive: -0.095
4 | O=c1[nH]cc(F)c(=O)[nH]1 [5-fluorouracil] | inactive: 0.202
5 | CS(=O)(=O)c1ccc([C@@H](O)[C@@H](CO)NC(=O)C(Cl)Cl)cc1 [Thiamphenicol] | inactive: 0.239
6 | CO/N=C(\C(=O)N[C@@H]1C(=O)N2C(C(=O)[O-])=C(C[n+]3ccn4ncccc43)CS[C@H]12)c1nsc(N)n1 [Cefozopran hydrochloride] | inactive: 0.96
7 | CC(C)Cc1ccc([C@H](C)C(=O)O)cc1 [S-(+)-ibuprofen] | inactive: -0.831
8 | O=C(O)Cc1ccccc1Nc1c(Cl)cccc1Cl [Diclofenac sodium] | inactive: 0.131
9 | CN1CCN(CCCN2c3ccccc3Sc3ccc(S(=O)(=O)N(C)C)cc32)CC1 [Thioproperazine dimesylate] | inactive: -0.78
10 | NCCCC[C@H](N[C@@H](CCc1ccccc1)C(=O)O)C(=O)N1CCC[C@H]1C(=O)O [Lisinopril] | inactive: -0.737
11 | CC(C)(C)NC[C@H](O)COc1nsnc1N1CCOCC1 [Timolol maleate salt] | inactive: -0.601
12 | O=C(Nc1cccc2c(=O)cc(-c3nnn[nH]3)oc12)c1ccc(OCCCCc2ccccc2)cc1 [Pranlukast] | inactive: 1.54
13 | CCOC(=O)[C@H](CCc1ccccc1)N[C@H]1CCc2ccccc2N(CC(=O)O)C1=O [Benazepril hydrochloride] | inactive: -1.21
14 | COC1=C(OC)C(=O)C(CCCCCCCCCCO)=C(C)C1=O [Idebenone] | inactive: -0.505
15 | CCOC(=O)OC(C)OC(=O)[C@@H]1N2C(=O)[C@@H](NC(=O)[C@H](N)c3ccccc3)[C@H]2SC1(C)C (stereo partly specified) [Bacampicillin hydrochloride] | inactive: 1.02
16 | CC(COc1ccccc1)N(CCCl)Cc1ccccc1 (stereo unspecified) [Phenoxybenzamine hydrochloride] | inactive: -1.33
17 | CCCNC(C)C(=O)Nc1ccccc1C (stereo unspecified) [Prilocaine hydrochloride] | inactive: 0.739
18 | COc1ccc(CN(CCN(C)C)c2ccccn2)cc1 [Pyrilamine maleate] | inactive: -1.49
19 | COc1cc(/C=C/C(=O)N2CCN(CC(=O)N3CCCC3)CC2)cc(OC)c1OC [Cinepazide maleate] | inactive: -0.187
20 | CC(=O)c1ccc(S(=O)(=O)NC(=O)NC2CCCCC2)cc1 [Acetohexamide] | inactive: 0.743
21 | C[C@H](CCc1ccccc1)NC[C@H](O)c1ccc(O)c(C(N)=O)c1 [Dilevalol] | inactive: -0.185

Row | Compound | light-induced TopBP1 condensate (z-score)
22 | CCCCC[C@H](O)/C=C/[C@@H]1[C@@H](C/C=C\CCCC(=O)O)[C@@H](O)C[C@H]1O [Dinoprost trometamol] | inactive: -0.134
23 | CCOC(=O)c1ccc(OC(=O)CCCCCNC(=N)N)cc1 [Gabexate mesilate] | inactive: 0.917
24 | O=C(NC1CCN(CCCCC2(C(=O)NCC(F)(F)F)c3ccccc3-c3ccccc32)CC1)c1ccccc1-c1ccc(C(F)(F)F)cc1 [Lomitapide] | inactive: -1.14
25 | CCCN[C@H]1CCc2nc(N)sc2C1 [Pramipexole dihydrochloride] | inactive: 0.0332
26 | Cc1cc(=O)oc2cc(O)ccc12 [Hymecromone] | inactive: 0.0278
27 | CN(C)CCCN1c2ccccc2[S+]([O-])c2ccc(Cl)cc21 (stereo unspecified) [Chlorpromazine Sulfoxide] | inactive: -1.17
28 | Cc1nc2ccccc2n1Cc1ccc(Cl)cc1 [Chlormidazole] | inactive: -0.19
29 | Cn1c(=O)c2nc[nH]c2n(C)c1=O [Theophylline monohydrate] | inactive: -0.814
30 | c1ccc(C2CN3CCSC3=N2)cc1 (stereo unspecified) [Tetramisole hydrochloride] | inactive: 0.0229
31 | C=C1c2cccc(O)c2C(=O)C2=C(O)[C@]3(O)C(=O)C(C(N)=O)=C(O)[C@@H](N(C)C)[C@@H]3[C@@H](O)[C@H]12 [Methacycline hydrochloride] | inactive: -0.118
32 | Cc1scc2c1N(C(=O)CN1CCN(C)CC1)c1ccccc1NC2=O [Telenzepine dihydrochloride] | inactive: -0.968
33 | CO[C@H]1/C=C/O[C@@]2(C)Oc3c(C)c(O)c4c(c3C2=O)C2=NC3(CCN(CC(C)C)CC3)NC2=C(NC(=O)/C(C)=C\C=C\[C@H](C)[C@H](O)[C@@H](C)[C@@H](O)[C@@H](C)[C@H](OC(C)=O)[C@@H]1C)C4=O [Rifabutin] | inactive: -0.0256
34 | O=C(O)Cc1csc(-c2ccc(Cl)cc2)n1 [Fenclozic acid] | inactive: 0.196
35 | O=C(Cn1ccnc1[N+](=O)[O-])NCCO [Etanidazole] | inactive: 0.76
36 | CN(C)CCN(Cc1cccs1)c1ccccn1 [Methapyrilene hydrochloride] | inactive: 0.726
37 | COc1c(O[C@@H]2O[C@H](CO)[C@@H](O)[C@H](O)[C@H]2O)cc2c(c1OC)-c1ccc(SC)c(=O)cc1[C@@H](NC(C)=O)CC2 [Thiocolchicoside] | inactive: -0.423
38 | CO[C@@H]1[C@@H](O[C@@H]2O[C@H](C)[C@@H](O[C@H]3C[C@@](C)(O)[C@@H](O)[C@H](C)O3)[C@H](N(C)C)[C@H]2O)[C@@H](CC=O)C[C@@H](C)[C@@H](O[C@H]2CC[C@H](N(C)C)[C@@H](C)O2)/C=C/C=C/C[C@@H](C)OC(=O)C[C@H]1OC(C)=O [Acetyl spiramycin] | inactive: -0.0623
39 | Clc1ccc(C(Cn2ccnc2)OCc2c(Cl)cccc2Cl)c(Cl)c1 (stereo unspecified) [Isoconazole] | inactive: 0.803
40 | NC(=O)N1c2ccccc2C=Cc2ccccc21 [Carbamazepine] | inactive: 1.16
41 | Nc1nc(F)nc2c1ncn2[C@@H]1O[C@H](CO)[C@@H](O)[C@@H]1O [Fludarabine] | inactive: -0.365
42 | CC[C@H]1OC(=O)[C@H](C)[C@@H](O[C@H]2C[C@@](C)(OC)[C@@H](O)[C@H](C)O2)[C@H](C)[C@@H](O[C@@H]2O[C@H](C)C[C@H](N(C)C)[C@H]2O)[C@](C)(O)C[C@@H](C)/C(=N\OCOCCOC)[C@H](C)[C@@H](O)[C@]1(C)O [Roxithromycin] | inactive: 0.222

Row | Compound | light-induced TopBP1 condensate (z-score)
43 | Nc1nc(=O)c2nc(CNc3ccc(C(=O)N[C@@H](CCC(=O)O)C(=O)O)cc3)cnc2[nH]1 [Folic acid] | inactive: -0.903
44 | CC(=O)N[C@@H](CC(C)C)C(=O)O [N-Acetyl-L-leucine] | inactive: -0.0363
45 | CC(C)C(=O)OCC(=O)[C@@]12O[C@H](C3CCCCC3)O[C@@H]1C[C@H]1[C@@H]3CCC4=CC(=O)C=C[C@]4(C)[C@H]3[C@@H](O)C[C@@]12C [Ciclesonide] | inactive: 0.538
46 | O=C1CN2Cc3c(ccc(Cl)c3Cl)N=C2N1 [Anagrelide] | inactive: -0.566
47 | CC(C)NCC(O)COc1ccc(COCCOC(C)C)cc1 (stereo unspecified) [Bisoprolol fumarate] | inactive: 0.768
48 | Nc1nc(=S)c2ncn([C@@H]3O[C@H](CO)[C@@H](O)[C@H]3O)c2[nH]1 [Thioguanosine] | inactive: 1.17
49 | CN1C2CCCC1CC(NC(=O)c1nn(C)c3ccccc13)C2 (stereo unspecified) [Granisetron] | inactive: -0.344
50 | CC(C)N1CCN(c2ccc(OCC3COC(Cn4cncn4)(c4ccc(Cl)cc4Cl)O3)cc2)CC1 (stereo unspecified) [Terconazole] | inactive: -0.114
51 | O=C(NCCNCC(O)COc1ccc(O)cc1)N1CCOCC1 (stereo unspecified) [Xamoterol hemifumarate] | inactive: -0.645
52 | CN(C)CCOC1=Cc2ccccc2Sc2ccc(Cl)cc21 [Zotepine] | inactive: 0.612
53 | CCN(Cc1ccncc1)C(=O)C(CO)c1ccccc1 (stereo unspecified) [Tropicamide] | inactive: 0.0637
54 | CCN(CC)CC#CCOC(=O)C(O)(c1ccccc1)C1CCCCC1 (stereo unspecified) [Oxybutynin chloride] | inactive: -0.907
55 | Cc1ncc([N+](=O)[O-])n1CCO [Metronidazole] | inactive: 1.01
56 | OC(CCN1CCCCC1)(c1ccccc1)C1CC2C=CC1C2 (stereo unspecified) [Biperiden hydrochloride] | inactive: -0.0758
57 | COc1ccc(C(=O)NCc2cccnc2)cc1C(=O)NCc1cccnc1 [Picotamide monohydrate] | inactive: 0.793
58 | C=CC[C@@H]1/C=C(\C)C[C@H](C)C[C@H](OC)[C@H]2O[C@@](O)(C(=O)C(=O)N3CCCC[C@H]3C(=O)O[C@H](/C(C)=C/[C@@H]3CC[C@@H](O)[C@H](OC)C3)[C@H](C)[C@@H](O)CC1=O)[C@H](C)C[C@@H]2OC [Tacrolimus Monohydrate] | inactive: -0.289
59 | NC[C@H]1O[C@H](O[C@H]2[C@H](O[C@@H]3O[C@H](CO)[C@@H](O)[C@H]3O)[C@@H](O)[C@H](N)C[C@@H]2N)[C@H](N)[C@@H](O)[C@@H]1O [Ribostamycin sulfate salt] | inactive: 0.143
60 | Cc1ccc(C(=O)c2cc(O)c(O)c([N+](=O)[O-])c2)cc1 [Tolcapone] | inactive: -0.692
61 | COc1ccc2[nH]cc(CCNC(C)=O)c2c1 [Melatonin] | inactive: 0.29
